Experimental findings from the RNAGym collection of RNA variant scans (doi:10.7554/elife.90254) are described below.

The source gives no read counts; variants with many changes may rest on few reads.

First the molecules themselves.
B1: LINE1-mini (parent)
chain: GGCAGAGCUCAACACAGCGUGGCAAAGUGGCUGUGGCUAGACUGCC

The variants in the data set derive from B1. The data set is described as follows: self-cleavage, relative activity (ratio to wild type); higher = more cleavage; in vitro, sequencing; the parent is a self-cleaving ribozyme.
Take C15A C31U G33U: the self-cleavage was found to be 0.13.
Regarding A14U C15G A25C, the self-cleavage worked out at 0.02.
Consider C15A G17C U32G, for which the self-cleavage worked out at 0.02.
For the variant A14U G22A A26G G35A U43C, the self-cleavage is 0.03.
Turning to C15U C18U C37A, the self-cleavage was 0.05.
Turning to C15A G35U U38A, the self-cleavage came out at 0.03.
Then C15U C18A U20A A25G G30C, with 0.17.
Consider A14U G17U G36A, for which the self-cleavage was 0.06.
Then C15U G21U G29U, with 1.23; and C15A G33U U34C, with 0.05.
Turning to C15A G33U U34A, the self-cleavage is 0.07.
As for C15U G36U G40C C45U, the self-cleavage was determined as 0.15.
As to C15A G17C C23U, the self-cleavage amounted to 0.13.
Then A14U G29C G35C G40A, with 0.07; and C15U U20C A24C G44U C45U, with 0.03; and C15G G30C U32G, with 0.
Turning to A14U G19U C37U A41U, the self-cleavage was found to be 0.02.
On to C15U G17C U32G U43C C46U, for which the self-cleavage worked out at 0.
For the variant C15U C23U U34A G44C, the self-cleavage came out at 0.02.
Consider A16C C18U G40A, for which the self-cleavage turned out to be 0.01.
Then C15G U34A G35C U38A, with 0.07.
Take A14U G19U A41G: the self-cleavage is 0.02.
With C15U A24U U43G, the self-cleavage was 0.03.
Then C15G G27C G35A, with 0.05; and A16C C18U G30A C46A, with 0.11; and A16C A24C U34C A41U, with 0.1.
Then C15A G29U C45A, with 0; and A14U G22U G30A G36A C42A, with 0.02; and C15A U32C G36U, with 0.07.
In the case of C15A G27U G36A, the self-cleavage came out at 0.05.
C15A G30A G40U: the self-cleavage is 0.04.
For A14U C18A C46G, the self-cleavage stood at 0.06.
A14U C18A U20G U38A: the self-cleavage was determined as 0.01.
C15A C37G C45U C46A: the self-cleavage was determined as 0.02.
Consider C15U G17A A41C C42U C46G, for which the self-cleavage was found to be 0.01.
In the case of C15A G17C C18A U28G C37A, the self-cleavage was 0.03.
C15A G21C C31G: the self-cleavage came out at 0.06.
Then C15G G19A A39G, with 0.01; and C15A A26C A41U, with 0.1; and A14U A25U G40U C45G, with 0.03.
Take A16C A25U U32G G44U: the self-cleavage amounted to 0.11.
As for C15U C18U A24U G27C A41C, the self-cleavage is 0.13.
A14U G19C G33A: the self-cleavage was found to be 0.11.
Take C15A U20G G22A A25C C37A U38G: the self-cleavage came out at 0.02.
As to C15G G22U C37A C46G, the self-cleavage was 0.01.
With A14U C23G A24G C31G U32A, the self-cleavage turned out to be 0.02.
As for C15U C23U G33U, the self-cleavage was 0.14.
For the variant C15G G17U G19U A26C C46U, the self-cleavage is 0.
Consider C15A G29U U34C, for which the self-cleavage is 0.03.
For C15A C31G C42U, the self-cleavage amounted to 0.03.
Then C15U G36U G44U, with 0.03; and C15G U20C C46G, with 0.01; and C15U A16G C23A C37U C42U C45U, with 0.07.
Then C15U G35A C42G, with 0.03; and A14U C15U U20C G21U, with 0.12; and A14U G36A C42G U43A, with 0.01.
As for A14U G33A G44A, the self-cleavage was 0.03.
As for C15G U20G A39U, the self-cleavage is 0.01.
In the case of C15A C23A C45U, the self-cleavage turned out to be 0.21.
With C15U G19U C37A C46U, the self-cleavage was 0.
In the case of C15U U20A A25C G35C, the self-cleavage turned out to be 0.09.
Then C15G G29U G40A, with 0.07.
Consider C15G A24U U32A U34C, for which the self-cleavage was determined as 0.02.
As for C15U C42G G44C C45U, the self-cleavage was found to be 0.06.
With C15A C18A A26U G33A, the self-cleavage came to 0.05.
As to A16C C18A G29A C37A, the self-cleavage was 0.06.
Then A14U C23A U38C C45A, with 0.16; and C15A G22C U28A, with 0.01.
For the variant C15A G17C C23U U28A C31G A39G A41G, the self-cleavage is 0.
For the variant C15A C23G C46U, the self-cleavage stood at 0.23.
Then C15A C23U C37G, with 0.02; and C15G G19A U32C, with 0.05.
As for C15G U28G G35C, the self-cleavage worked out at 0.01.
C15U C18G C23G: the self-cleavage is 0.06.
Then A14U G17U G22U, with 0.12; and C15G A39C G40A C46A, with 0.08; and C15A U38G C42G, with 0.03.
Regarding C15U G22C U32C C46U, the self-cleavage was determined as 0.04.
For the variant A14U G29C U38C, the self-cleavage was 0.02.
Consider C15G A16C C18U U20G G21A G22C C23U C45U, for which the self-cleavage was 0.02.
Regarding A16C A26C U38G G44U, the self-cleavage is 0.03.
Take C15A G17A C18U G36C A41U: the self-cleavage worked out at 0.17.
In the case of C15A C23U A24U G30A, the self-cleavage came out at 0.05.
Take A14U C15A U20C C31A: the self-cleavage was found to be 0.09.
Regarding C15G C31G C42A G44C, the self-cleavage is 0.01.
Then A14U U20A G36C, with 0.02; and A16C C18U G44C, with 0.02.
Regarding C15A U34A A39U, the self-cleavage came to 0.14.
As to C15A A16G G21C A26C A39C, the self-cleavage was 0.
For C15G G40U A41U U43C, the self-cleavage worked out at 0.08.
Then C15U C31G A39G, with 0.02; and C15A C31A C37A U43A, with 0.1; and C15U U20G U34C G44C, with 0.01.
On to C15U G27U G30A C42U, for which the self-cleavage stood at 0.04.
Then C15G U32A C46G, with 0.02; and C15G A25C U34A C37U C42A, with 0.01.
For A14U G21A G22U U28C, the self-cleavage amounted to 0.64.
For the variant C15A U20A U28G G33U U34G, the self-cleavage came out at 0.
For C15G G17A A39U, the self-cleavage was 0.03.
On to C15A A16C U20C G30A, for which the self-cleavage came out at 0.03.
Then A14U G22U A24U, with 0.24; and A14U G22C G27C G30C G35U, with 0.12; and C15A U20G U32G, with 0.14.
Turning to A14U G36C U38G, the self-cleavage is 0.08.
As to A14U G30C A41G, the self-cleavage came to 0.07.
Turning to A14U C15A G44U, the self-cleavage stood at 0.03.
For A14U C23U G35U, the self-cleavage is 0.05.
Turning to C15U G19U A24G C45G, the self-cleavage stood at 0.1.
Then C15U G22A C46U, with 0.75; and C15G U20A G29A, with 0.03.
Take A16C C18G A26C: the self-cleavage was 0.04.
Turning to A14U A41C G44U, the self-cleavage is 0.37.
For the variant C15U C18G A26G C37A C42G, the self-cleavage worked out at 0.01.
As to A16C A26G G27A C37A, the self-cleavage came out at 0.09.
On to C15A C23A G35U, for which the self-cleavage worked out at 0.03.
Then C15G C18A G19U C23U, with 0.04; and C15A U20G C23A G29A, with 0.09; and C15U A39G U43G C45U, with 0.07.
For the variant C15A C31U G35U G36U A39U C42G, the self-cleavage is 0.02.
Then A14U G17A A24C, with 0.07; and C15U G27C G29U, with 2.92.
Then C15U U20C A26C G33U, with 0.36.
As to C15G U20C G22U, the self-cleavage was found to be 0.09.
As to C15A C18G G36C, the self-cleavage stood at 0.02.
Turning to C15U C23U G44C, the self-cleavage was 0.37.
With C15G U20G C45U, the self-cleavage stood at 0.03.
In the case of A14U G21A G30A, the self-cleavage was 2.15.
Turning to C15U C18U U32C G35C G44A, the self-cleavage worked out at 0.06.
For C15A G17U G27A, the self-cleavage came to 0.05.
For the variant A14U A25U U28A, the self-cleavage was 0.14.
For C15G G21U G29U U34G U43A, the self-cleavage was determined as 0.
As for A14U G19A U28A A39G, the self-cleavage was 0.06.
Take C15G A16C G17A G35U A39G G40U: the self-cleavage stood at 0.01.
Regarding C15A A16C C23A A25U A41C, the self-cleavage is 0.06.
Regarding C15A G19A A25U C37U, the self-cleavage was found to be 0.03.
As for A16C C31U U38C, the self-cleavage stood at 0.04.
Consider C15U G33U A39C, for which the self-cleavage was determined as 0.02.
As to A14U G19A G22U U32G G36C, the self-cleavage is 0.08.
Then C15U G17C G21A, with 0.08; and C15U A39U U43C, with 0.02; and A14U G21U G29U C46G, with 0.86.
Then C15A G21A A25C A39U, with 0.06; and A14U G21U G36A, with 0.14.
Then C15U G17C U20C G44A, with 0.01; and C15A G22A C23U A26G G30C A39C, with 0.01.
On to A16C C18U G22U G33C G35U U43G, for which the self-cleavage stood at 0.
C15A G29U U43A: the self-cleavage was found to be 0.08.
Then C15A G19U C31G, with 0.01; and A14U A26C U32A, with 0.03.
As for C15U A16C G19U, the self-cleavage is 0.01.
C15U G19U A41C: the self-cleavage is 0.03.
Take C15U G29U G44U: the self-cleavage is 0.14.
Regarding A14U G30U C31A U38C, the self-cleavage was 0.08.
Then C15U G33U C46A, with 0.04.
In the case of A14U G30C G44U, the self-cleavage worked out at 0.03.
Then C15G G19C U28G G29C, with 0.02; and C15U G22A C23G C37A, with 0.02.
Regarding C15G A39U G44C, the self-cleavage was found to be 0.01.
Take C15U A16U A26U: the self-cleavage was 0.07.
Then A14U G17U G40A, with 0; and C15A A25G A26G G29U, with 0.09; and C15A G19U U43A C46G, with 0.01.
Then C15A U34A C45U, with 0.21; and A14U C23U U28C A41G, with 0.11.
As to C15A C18A A24G, the self-cleavage was determined as 0.03.
In the case of C15G A16G U32A, the self-cleavage was 0.2.
Regarding C15U G17U A26U C42U, the self-cleavage came to 0.
